# Results reported in PubChem BioAssay AID1508642 (National Center for Advancing Translational Sciences (NCATS), 2021).
# Screen size: about 43,000 compounds; about 200 (0.47%) were called active. Inconclusive results (about 12%) are left out. Calls come from the whole dose curve; as a rule, active = well fitted cell-killing curve with a large enough effect; inconclusive = small, poorly fitted or top-dose-only effect, or effect the other way; inactive = flat fitted curve, though single readings scatter. Some of the results follow.
# Experiment: Cell viability qHTS assay in S16 Pmp22-F2sN cells; note: nearly all actives have a fitted effect of over 65% in size
# Details: S16 Pmp22-F2sN Schwann cells (luciferase reporters placed in the Pmp22 gene) viability, CellTiter-Glo, 24 h; series mostly up to 57.5 µM; activity change, negative = cytotoxicity: at the top concentration
# Procedure, shortened: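 Seed 500-1,000 S16 Pmp22-F2sN cells per well in phenol-red-free DMEM with 10% heat-inactivated FBS; pin-add 23 nL compound; incubate 24 h at 37C; add CellTiter-Glo, wait 15 min protected from light; read luminescence.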
# % is set by controls: 0 for no effect and ±100 for the full control effect.
row,SMILES,"activity change, negative = cytotoxicity"
1,Cc1ccc(-n2nnc(-c3nsc(NC(=O)c4ccc(C)c(C)c4)n3)c2C)cc1,inactive: -30%
2,Cc1ccc2c(c1)c1c(c(=O)n(-c3ccccc3C)c(=O)n1CC(=O)NCC1CCCO1)n2C (centres undefined),inactive: 13.9%
3,Cc1cc(=O)n2nc(N3CCC(C(=O)Nc4ccc(Br)cc4F)CC3)sc2n1,inactive: 17.7%
4,COc1cccc(NC(=O)c2ccc(-c3nc(COc4ccc(C)cc4)c(C)o3)cc2)c1,inactive: -9.3%
5,Nc1c(C(=O)Nc2ccc(Br)cc2)sc2nc(-c3ccncc3)ccc12,inactive: 6.99%
6,O=C(CNC(=O)c1ccc(Cl)cc1)OCc1cc(=O)n2nc(C3CCCCC3)sc2n1,inactive: -39.7%
7,Cc1ccc(C)c(NC(=O)CCCN2C(=O)C(c3ccccc3)Oc3cccnc32)c1 (centres undefined),inactive: 18.3%
8,CCOC(=O)c1cc(-c2ccc(F)cc2)n(CCC(=O)NC2CCCCC2)c1C,inactive: -21.7%
9,Cc1cc(C)cc(Nc2nc3c(S(=O)(=O)c4cccc(Cl)c4)nnn3c3ccsc23)c1,inactive: 4.68%
10,CCOC(=O)c1cccc(NC(=O)c2cc3cc4ccc(C)cc4nc3s2)c1,inactive: 12.9%
11,CSc1ccc(CCNC(=O)c2cc3c(-c4ccccc4F)nn(C)c3s2)cc1,inactive: 11.2%
12,Cc1cccc(NC(=O)Cn2c(=O)n(CCC(=O)N3CCc4ccccc4C3)c(=O)c3ccccc32)c1,inactive: 19.2%
13,CCOc1ccc(NC(=O)NCCN2CCN(c3ccccc3F)CC2)cc1,inactive: 16.9%
14,CC(=O)Nc1ccc(C(=O)CSc2nnc3ccc4ccccc4n23)cc1,inactive: 5.85%
15,CCOC(=O)c1cc2c(=O)n3ccccc3nc2n(C)c1=NC(=O)c1cc2ccccc2o1,inactive: -18.6%
16,CCc1ccc(OCCSc2nc(-c3cccc(C)c3)nc3cc(=O)[nH]n23)cc1,inactive: 16.5%
17,COc1ccc(NC(=O)CCSc2nc(-c3ccco3)cc(C(F)(F)F)n2)cc1OC,inactive: 2.74%
18,O=C(CN1C(=O)C2(SCC(=O)N2c2ccc(F)cc2)c2ccccc21)NCCc1ccccc1 (centres undefined),inactive: -11.4%
19,COc1ccc(NCc2nnc3n2CCCCC3)c(OC)c1,inactive: 10.3%
20,CCOc1ccc(C(=O)c2cn(CC(=O)Nc3cc(OC)ccc3OC)c3cc(OC)c(OC)cc3c2=O)cc1,inactive: 5.22%
21,COc1ccc(-c2ccc(=O)n(CC(=O)NCCc3ccccc3)n2)cc1,inactive: -0.971%
22,Cc1cc(C)c(NC(=O)C(C)n2nnc3sc(-c4ccccc4)cc3c2=O)c(C)c1 (centres undefined),inactive: 8.48%
23,CCOC(=O)C1CCN(C(c2ccc(F)cc2)c2sc3nc(-c4ccco4)nn3c2O)CC1 (centres undefined),inactive: 13.1%
24,CCOc1cc(CNCCSc2nnnn2-c2ccccc2)ccc1OC,inactive: -26.9%

row,SMILES,"activity change, negative = cytotoxicity"
1,Cc1cc(C)cc(Nc2cc(C(=O)NCc3ccccc3)c3ccccc3n2)c1,inactive: 1.08%
2,O=[N+]([O-])c1cc(-c2nc(-c3ccncc3)no2)ccc1NCc1ccccc1,inactive: 0.0751%
3,COc1cn(CC(=O)Nc2cc(C)ccc2C)c(CN2CCCCC2)cc1=O,inactive: 1.15%
4,CNC(=O)C1CCC(Cn2c(=O)c3sccc3n(CC(=O)Nc3cc(F)ccc3F)c2=O)CC1 (centres undefined),inactive: -16%
5,CC(=O)Nc1cccc(NC(=O)CSc2cn(CC(=O)N3CCCCCC3)c3ccccc23)c1,inactive: -1.21%
6,CCOC(=O)c1cccc(NC(=O)N2CCC(CN3CCCCCC3)CC2)c1,inactive: 15.8%
7,COc1ccccc1NC(=O)C1=C(C)Nc2nc(SCc3ccccc3Cl)nn2C1c1ccncc1 (centres undefined),inactive: -3.35%
8,CCN(CC)S(=O)(=O)c1ccc(C(=O)NCCSc2c(-c3ccc(OC)cc3)[nH]c3ccccc23)cc1,inactive: -14.9%
9,COc1ccc(OC)c(NC(=O)CN2CCCN(Cc3cc(C)ccc3C)S2(=O)=O)c1,inactive: 5.21%
10,Cc1cccc2c1-c1sc(C(=O)N3CCN(c4cccc(Cl)c4)CC3)cc1CO2,inactive: 6.36%
11,COc1ccc(-c2cc(C(F)(F)F)nc(SCC(=O)NCc3ccc(Cl)cc3)n2)cc1,inactive: 2.06%
12,CCOc1ccc(CCNC(=O)c2cnc3sc(N4CCCCCC4)nn3c2=O)cc1,inactive: -4.07%
13,Cc1ccc(C)c(C(=O)COC(=O)CCCC(=O)Nc2cc(C(F)(F)F)ccc2Cl)c1,inactive: 1.62%
14,CC1=C(C(=O)Nc2ccc(F)cc2F)C2(CCCCCC2)OC1=O,inactive: 0.984%
15,O=C(CN1C(=O)C2(SCC(=O)N2c2ccc(F)c(F)c2)c2ccccc21)Nc1ccccc1F (centres undefined),inactive: -0.486%
16,O=C(CSc1nccn1Cc1ccc(Cl)cc1)NCc1ccccc1,inactive: -2.9%
17,COc1ccccc1CNC(=O)C(CC(C)C)N1Cc2ccccc2C1=O (centres undefined),inactive: -15.5%
18,CCOc1ccc(NC(=O)CN2C(C(=O)OC)=C(c3ccccc3)c3cc(Cl)ccc3S2(=O)=O)cc1,inactive: 17.1%
19,Cc1cc(=O)[nH]c2nnc(SCc3ccc(Cl)cc3)n12,inactive: 2.2%
20,COC(=O)C1=C(c2ccccc2)c2ccccc2S(=O)(=O)N1CC(=O)Nc1ccc(OC)cc1OC,inactive: -1.58%
21,O=C(NCc1ccccc1)C1CCN(S(=O)(=O)c2ccc3[nH]c(=O)ccc3c2)CC1,inactive: 16.3%
22,Cc1cccc(N(C)S(=O)(=O)c2c(C(=O)N3CCCCCC3)c(C)n(C)c2C)c1,inactive: 8%
23,Cc1ccc(CNC(=O)CN2CCN(Cc3ccc(F)cc3)C2=O)cc1,inactive: -1.89%
24,Cc1ccc(Cl)cc1-n1ncc2c(N3CCC(C)CC3)ncnc21,inactive: -23.7%

row,SMILES,"activity change, negative = cytotoxicity"
1,COc1ccccc1NC(=O)C1CCN(S(=O)(=O)c2cn(C)cn2)CC1,inactive: -6.4%
2,COc1ccccc1-c1cc(NC(=O)COc2ccc(C)c(C)c2)n(-c2ccccc2)n1,inactive: -13.2%
3,CC(C)c1ccc(NC(=O)CCNS(=O)(=O)c2ccc3c(c2)CCCC(=O)N3)cc1,inactive: -3.13%
4,CCOC(=O)CC(NC(=O)CCc1c(C)nc2ncnn2c1C)c1ccc(OC(C)C)cc1 (centres undefined),inactive: 9.94%
5,CCOc1ccc(NC(=O)Cn2c(=O)cc(C)c3c(C)nn(-c4cccc(Cl)c4C)c32)cc1,inactive: 21.1%
6,CCOc1ccc(C(=O)N2CCN(CCc3ccccn3)CC2)cc1,inactive: 5.7%
7,Cn1c(=O)[nH]c(=O)c2c1nc1n2CCN1c1ccccc1,inactive: 1.69%
8,CCOc1ccc(S(=O)(=O)c2cn(Cc3ccc(OC)cc3)c3ccc(F)cc3c2=O)cc1,inactive: -12.7%
9,Cc1ccc(-c2nc(S(=O)(=O)c3ccc(C)cc3)c(N3CCCCCC3)o2)cc1,inactive: -18.3%
10,Cc1ccc(N2CCN(S(=O)(=O)c3nnc(NC(=O)c4ccc(C(C)C)cc4)s3)CC2)cc1,inactive: 3.57%
11,Cc1ccccc1CSc1nc2cccnc2n1Cc1ccc(C(=O)NC2CC2)cc1,inactive: -28.3%
12,CCOc1ccc(Nc2nc(C)c(NC(=O)c3cccc(OC)c3)c(Nc3ccc(OCC)cc3)n2)cc1,inactive: -25.5%
13,COc1ccc(CNC(=O)C2CCC(CNS(=O)(=O)c3cccs3)CC2)cc1 (centres undefined),inactive: 1.41%
14,CCOC(=O)c1ccccc1NC(=O)CSc1cn(CC(=O)N2CCOCC2)c2ccccc12,inactive: 10.7%
15,COc1ccc(S(=O)(=O)N(CC(=O)Nc2cccc(C)c2)c2ccc(C)cc2)cc1OC,inactive: 18.9%
16,Cc1cc(C)c(NC(=O)CSc2nc(-c3ccc(F)cc3)nc3c2Cc2c(CO)cnc(C)c2O3)c(C)c1,inactive: -0.0563%
17,O=C(NCCC1=CCCCC1)c1ccc2c(c1)N(Cc1cccc(Cl)c1)C(=O)c1ccccc1S2(=O)=O,inactive: -5.25%
18,COc1ccc(N2CCN(c3ccc(-c4nc(-c5cccc(C)c5)no4)cc3[N+](=O)[O-])CC2)cc1,inactive: 4.23%
19,CCOC(=O)C1=C(CN(CC)Cc2ccccc2)NC(=O)NC1c1ccc(OC(C)C)cc1 (centres undefined),inactive: -17.8%
20,COc1ccccc1CNC(=O)c1ccc(N2CCCC2)c(NC(=O)NCc2ccc(F)cc2)c1,inactive: 1.63%
21,CCCCSCCCNC(=O)C1CCN(Cc2nc(-c3cccc(Br)c3)oc2C)CC1,inactive: 3.93%
22,O=C(Cn1ncc2c3ccccc3n(Cc3ccccc3F)c2c1=O)N1CCCCC1,inactive: -1.87%
23,CC(C)CN(CCCNC(=O)CN1N=C(c2ccccc2)CCC1=O)CC(C)C,inactive: 10.8%
24,CCOc1ccc(CCNC(=O)c2[nH]c3cc(OC)ccc3c2Sc2ccccc2)cc1OCC,inactive: 2.02%

row,SMILES,"activity change, negative = cytotoxicity"
1,Cc1cccn2c(=O)c3cc(C(=O)N(Cc4ccccc4)C(C)C)sc3nc12,inactive: -17.4%
2,Cc1cccc(C(=O)Nc2nc(-c3nnn(-c4cc(F)ccc4F)c3C)ns2)c1,inactive: 24.4%
3,Cc1c(C(=O)NCCc2ccc(S(N)(=O)=O)cc2)sc2nc3n(c(=O)c12)CCCC3,inactive: 5.31%
4,O=S(=O)(NCc1ccccc1Cl)c1ccc(N2CCCCS2(=O)=O)cc1,inactive: -13.6%
5,CCc1ccccc1NC(=O)CSc1nc2c(oc3ccccc32)c(=O)n1-c1ccccc1F,inactive: -7.89%
6,Cc1ccc2ccc3cc(C(=O)N4CCN(c5ccccc5)CC4)nc3c2[nH]1,inactive: -4.11%
7,CC(=O)Nc1ccc(-c2nnc(SCC(=O)c3ccc([N+](=O)[O-])cc3)o2)cc1,inactive: 6.27%
8,Cc1ccc(NC(=O)C(=O)NCC(c2cccnc2)N2CCN(Cc3ccccc3)CC2)cc1 (centres undefined),inactive: -10.3%
9,CC1CCN(S(=O)(=O)c2ccc3c(c2)N(CC(=O)O)C(=O)CO3)CC1,inactive: -17.1%
10,Cc1cccc(Cn2c(C)c(CNC3CCCCC3)c(C(=O)O)c2C)c1,inactive: 26.8%
11,COc1ccc(-c2cc(C(F)(F)F)n3nc(C(=O)NCC45CC6CC(CC(C6)C4)C5)cc3n2)cc1OC,inactive: 10.5%
12,CCOC(=O)c1ccccc1NC(=O)N1CCOc2ccc(Cl)cc21,inactive: 0.0828%
13,Cc1cc(Cl)ccc1NC(=O)C1CCN(c2nnc(-n3c(C)ccc3C)s2)CC1,inactive: -0.843%
14,O=S(=O)(c1ccc(Cl)cc1)c1nnn2c1nc(N1CCCCC1)c1sccc12,inactive: 1.86%
15,COc1ccc(OC)c(S(=O)(=O)N2CC=C(c3c(C)n(CC(=O)N4CCCC4)c4ccccc34)CC2)c1,inactive: 4.62%
16,Cc1cn(C)c(CC(=O)N2CCN(c3ccccc3F)CC2)c1C(=O)O,inactive: -5.45%
17,COc1ccc(-c2nc3sc(CCNC(=O)c4ccccc4C)c(C)n3n2)cc1,inactive: -8.75%
18,Cc1cccc(NC(=O)N2CCC(CN3CCOCC3)CC2)c1C,inactive: 5.49%
19,Cc1ccc2c(c1)-c1c(c(C(=O)N3CCN(c4cc(Cl)ccc4C)CC3)nn1C)CS2,inactive: 13.7%
20,CC(CNC(=O)CCS(=O)(=O)c1ccc2c(c1)oc(=O)n2C)c1ccccc1 (centres undefined),inactive: 10.5%
21,Fc1ccccc1-n1ncc2c1ncn1nc(Cc3ccccc3)nc21,inactive: 20.5%
22,Cc1ccccc1NC(=O)CN(c1ccc(Cl)cc1Cl)S(=O)(=O)c1ccccc1,inactive: 5.47%
